Measurements published in PubChem BioAssay AID2675 (National Center for Advancing Translational Sciences (NCATS), 2010).
Hit rate of the full screen: of about 280,000 compounds, about 100 (0.036%) were called active. The shares of active, inactive and inconclusive entries below differ from those in the screen. Calls come from the whole dose curve; as a rule, active = well fitted inhibition curve with a large enough effect in the signal ratio, with a control signal flat (not every such curve was filed as active); inconclusive = small, poorly fitted or top-dose-only effect, or effect the other way, or a change in a side signal; inactive = no such curve, though single readings can be large or run the other way; the % refers to the signal ratio. Where the call is inconclusive, the potency comes from a doubtful curve fit. A note “side channel” means that the fit belongs to a control or component signal, not to the main read-out.

The compounds below were run against Muscleblind-like protein 1 (Homo sapiens) (UniProt Q9NR56) (assay: qHTS Assay for Inhibitors of MBNL1-poly(CUG) RNA binding). Settings: TR-FRET MBNL1-His/biotin-(CUG)12 binding, 665/545 ratio; activity change, negative = inhibition: at 57.5 µM (top of the series).
Outline: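 Inhibition of protein-RNA binding appears as loss of TR-FRET between terbium anti-His antibody on MBNL1-His and streptavidin-XL665 on biotin-(CUG)12. Activity is normalized to buffer-only and uninhibited-complex controls.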
% is set by controls: 0 for no effect and ±100 for the full control effect; potency is the fitted concentration of half-maximal effect; tags give direction and shape of the fitted curve or compound fluorescence and quenching.

Chain of UniProt Q9NR56 (Q9NR56 whole entry, looked up): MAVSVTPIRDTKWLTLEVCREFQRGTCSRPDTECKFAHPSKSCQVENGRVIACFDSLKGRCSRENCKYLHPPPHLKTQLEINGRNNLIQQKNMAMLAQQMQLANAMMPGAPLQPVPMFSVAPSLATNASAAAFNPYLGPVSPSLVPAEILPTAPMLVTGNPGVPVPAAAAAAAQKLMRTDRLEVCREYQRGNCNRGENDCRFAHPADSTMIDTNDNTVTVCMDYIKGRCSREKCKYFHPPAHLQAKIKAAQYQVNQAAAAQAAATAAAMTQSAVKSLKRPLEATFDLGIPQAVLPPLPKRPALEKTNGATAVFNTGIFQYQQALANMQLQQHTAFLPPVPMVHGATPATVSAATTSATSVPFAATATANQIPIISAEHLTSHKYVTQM

How did the Potency turn out when `Nc1nc(O)c(Sc2ccccc2[N+](=O)[O-])c(=O)[nH]1` was run?
Its Potency is inconclusive: 25.1 µM [quencher, side channel, partial curve].

`CC(C)c1ccc2[nH]c(O)c(N=NC(=S)NCCc3ccccc3)c2c1` was tested. Which “activity change, negative = inhibition” value did it give?
Its value is inactive: -1.47%.

For `O=[N+]([O-])c1ccc(Nc2ccccn2)c([N+](=O)[O-])c1`, which Potency is on record?
The Potency was inconclusive: 2.51 µM [quencher, side channel, full curve].

For `Cc1nc(Nc2ccc(C(=O)O)cc2)nc(Nc2ccc(C(=O)O)cc2)c1[N+](=O)[O-]`, which Potency is on record?
Its Potency is inconclusive: 3.16 µM [quencher, side channel, full curve].

`O=C(O)COc1ccc(/C=N/NC(=O)/C(=C/C=C/c2ccccc2)NC(=O)c2ccccc2)cc1` was tested. Which Potency did it give?
The Potency was inconclusive: 22.4 µM [quencher, side channel, partial curve].

Which Potency does the source give for `CCCCn1c(-c2ccco2)nc2oc3ccccc3c(=O)c2c1=O` here?
The Potency was inconclusive: 0.141 µM [quencher, side channel, full curve, poor fit].

How did the Potency turn out when `NC(=O)c1ccsc1NC(=O)Cc1ccc([N+](=O)[O-])cc1` was run?
Its Potency is inconclusive: 17.8 µM [quencher, side channel, partial curve].

`Fc1ccc(-c2nc3cnccn3c2NC2CCCC2)cc1` was tested. Which Potency did it give?
Its Potency is inconclusive: 12.6 µM [quencher, side channel, partial curve].

How did the Potency turn out when `O=C(NNC(=S)Nc1ccc(Br)cc1Cl)c1ccncc1` was run?
The Potency was inconclusive: 28.2 µM [fluorescent, side channel, partial curve].

With `CC(C)(CO)NS(=O)(=O)c1ccc2c(c1)C(=NO)c1cc(S(=O)(=O)NC(C)(C)CO)ccc1-2` as the compound, how does the Potency read?
The Potency was inconclusive: 14.1 µM [quencher, side channel, partial curve].

For `COc1ccc(-n2c(O)c(/C=N/NS(=O)(=O)c3cccc([N+](=O)[O-])c3)c3ccccc3c2=O)cc1OC`, which Potency is on record?
Its Potency is inconclusive: 15.8 µM [quencher, side channel, partial curve].

How did the Potency turn out when `O=C(CON=C1c2ccccc2-c2ccccc21)NC12CC3CC(CC(C3)C1)C2` was run?
The Potency was inconclusive: 39.8 µM [quencher, side channel, single point].

With `O=C1CN(c2nc(-c3ccccc3)c3cc(Cl)ccc3n2)c2ccccc2N1` as the compound, how does the “activity change, negative = inhibition” value read?
Its value is inactive: -18.6%.

With `COc1ccc(N(C(C)C(=O)Nc2ccc(S(=O)(=O)N3CCCCC3)cc2)S(C)(=O)=O)cc1` (centres undefined) as the compound, how does the “activity change, negative = inhibition” value read?
The value was inactive: -4.17%.

Which Potency does the source give for `NS(=O)(=O)c1ccc(CNC(=O)/C=C/c2ccc(S(=O)(=O)N3CCOCC3)cc2)cc1` here?
The Potency was inconclusive: 12.6 µM [quencher, side channel, partial curve, poor fit].

`O=C(NCc1ccccn1)c1ccc(CS(=O)(=O)Cc2ccc(Cl)cc2)o1` was tested. Which “activity change, negative = inhibition” value did it give?
Its value is inactive: -2.48%.

For `N#C/C(=C\c1ccccc1[N+](=O)[O-])c1nc(C2CC2)cs1`, which Potency is on record?
The Potency was inconclusive: 12.6 µM [quencher, side channel, partial curve].

With `COC(=O)c1sc(S(=O)(=O)N2CCN(c3ccc(OC)cc3)CC2)c(C(=O)OC)c1C` as the compound, how does the “activity change, negative = inhibition” value read?
The value was inactive: -4.49%.

`CCN(CC)S(=O)(=O)c1ccc(O)c(NC(=O)c2cc(-c3cc(OC)c(OC)c(OC)c3)nc3ccccc23)c1` was tested. Which “activity change, negative = inhibition” value did it give?
The value was inactive: 1.67%.

`CCCNC(=O)COC(=O)c1ccccc1C(=O)c1ccc(Cl)c([N+](=O)[O-])c1` was tested. Which Potency did it give?
The Potency was inconclusive: 39.8 µM [quencher, side channel, partial curve, poor fit].

With `O=C(O)c1ccc2c(c1)C(=O)/C(=C\c1ccco1)C2=O` as the compound, how does the Potency read?
The Potency was inconclusive: 28.2 µM [quencher, side channel, partial curve].

With `CC(C)(C)NC(=O)/C(=C\c1ccccc1F)NC(=O)c1ccc([N+](=O)[O-])cc1` as the compound, how does the Potency read?
Its Potency is inconclusive: 20 µM [quencher, side channel, partial curve].

`Cc1nc(N/C(N)=N/S(=O)(=O)c2ccc([N+](=O)[O-])cc2)nc2ccccc12` was tested. Which Potency did it give?
The Potency was inconclusive: 15.8 µM [quencher, partial curve].

With `COCc1cc(/C=N\NC(=O)Cc2ccc(OC)cc2)ccc1OC` as the compound, how does the Potency read?
The Potency was inconclusive: 12.6 µM [quencher, side channel, partial curve].

How did the “activity change, negative = inhibition” value turn out when `O=C(C(Cl)Cl)N1CCN(Cc2ccc3c(c2)OCO3)CC1` was run?
The value was inactive: 0.326%.

How did the “activity change, negative = inhibition” value turn out when `CCOC(=O)CSc1nc2cc(OC)ccc2cc1C#N` was run?
Its value is inactive: 186%.

How did the Potency turn out when `Cc1ccc2nsnc2c1S(=O)(=O)N1CCN(Cc2ccc3c(c2)OCO3)CC1` was run?
Its Potency is inconclusive: 25.1 µM [quencher, side channel, single point].

`O=c1oc(-c2ccc([N+](=O)[O-])cc2)nc2ccc(O)cc12` was tested. Which Potency did it give?
Its Potency is inconclusive: 7.08 µM [quencher, side channel, partial curve].

`Cc1[nH]c2ccc(F)cc2c1CCN(Cc1cccnc1)C(=S)Nc1cccc(F)c1` was tested. Which “activity change, negative = inhibition” value did it give?
The value was inactive: -1.64%.

With `Cc1ccc(NC2(C#N)C(=O)Nc3ccccc32)cc1` (centres undefined) as the compound, how does the Potency read?
The Potency was inconclusive: 7.94 µM [quencher, side channel, partial curve].

Which Potency does the source give for `O=c1nc(-c2ccccc2)c(-c2ccccc2)n[nH]1` here?
Its Potency is inconclusive: 39.8 µM [quencher, single point].

With `Clc1cccc(CNCCCSc2ncccn2)c1Cl` as the compound, how does the “activity change, negative = inhibition” value read?
The value was inactive: -0.462%.

How did the “activity change, negative = inhibition” value turn out when `CC(C)[C@H](NC(=O)[C@@H]1CSC2c3ccccc3C(=O)N21)C(=O)N1CCCCC1` (some centres undefined) was run?
The value was inactive: 2.58%.

Which Potency does the source give for `COc1cc(/C=C/C(=O)O)cc(S(=O)(=O)NCCCC(=O)O)c1OC` here?
The Potency was inconclusive: 28.2 µM [quencher, side channel, single point].

`Cc1ccc(-c2nc3cnccn3c2Nc2c(C)cccc2C)o1` was tested. Which Potency did it give?
Its Potency is inconclusive: 11.2 µM [quencher, side channel, partial curve].

With `ClCC1=Nc2cccc3cccc(c23)N1` as the compound, how does the Potency read?
The Potency was inconclusive: 31.6 µM [quencher, side channel, single point].

Which “activity change, negative = inhibition” value does the source give for `Cc1cccc(OCCSc2nc(N)cc(N)n2)c1` here?
Its value is inactive: -5.75%.

For `COC(=O)C1=C(C)N(C)C(=O)NC1c1cc2c(cc1[N+](=O)[O-])OCO2` (centres undefined), which Potency is on record?
The Potency was inconclusive: 15.8 µM [quencher, side channel, partial curve].

Which Potency does the source give for `Cc1cccc2c1c(N=NC(N)=S)c(O)n2C1OC(CO)C(O)C(O)C1O` (centres undefined) here?
The Potency was inconclusive: 11.2 µM [quencher, partial curve].

`COCCNC(=O)NC(=O)COC(=O)c1cc([N+](=O)[O-])ccc1Sc1nc(C)cs1` was tested. Which Potency did it give?
Its Potency is inconclusive: 14.1 µM [quencher, side channel, partial curve].

`Cc1nn(Cc2c(Cl)cccc2Cl)c(C)c1NC(=O)CCCn1nc([N+](=O)[O-])c(Cl)c1C` was tested. Which Potency did it give?
The Potency was inconclusive: 0.126 µM [quencher, side channel, full curve, poor fit].

For `COc1cccc(-c2ccc3c(N)c(C(=O)NC4CC4)sc3n2)c1`, which Potency is on record?
The Potency was inconclusive: 28.2 µM [quencher, side channel, single point].

With `Cc1ccnc(NC(=O)CCCc2ccccc2)c1` as the compound, how does the Potency read?
Its Potency is inconclusive: 0.631 µM [fluorescent, side channel, full curve, poor fit].

With `CCn1c2ccccc2c2nnc(SCc3ccc(C(=O)OC)o3)nc21` as the compound, how does the Potency read?
The Potency was inconclusive: 20 µM [quencher, side channel, partial curve].

Which Potency does the source give for `O=C(CN(c1ccc([N+](=O)[O-])cc1)S(=O)(=O)c1ccccc1)N1CCCCC1` here?
The Potency was inconclusive: 25.1 µM [quencher, partial curve].

`CC1Cc2ccccc2N1C(=O)Cn1nc(C(=O)O)c2ccccc2c1=O` (centres undefined) was tested. Which Potency did it give?
Its Potency is inconclusive: 17.8 µM [quencher, side channel, partial curve].

`Cc1csc(NC(=O)c2ccc3ccccc3n2)n1` was tested. Which Potency did it give?
The Potency was inconclusive: 17.8 µM [quencher, side channel, partial curve].

`CCOC(=O)C(C)(C)NS(=O)(=O)c1ccc(Cl)c([N+](=O)[O-])c1` was tested. Which Potency did it give?
The Potency was inconclusive: 15.8 µM [quencher, side channel, partial curve].

For `CC(NC(=O)c1ccccc1F)c1nnc(SCC(=O)N2CCN(c3ccccc3)CC2)n1C` (centres undefined), which “activity change, negative = inhibition” value is on record?
The value was inactive: -2.38%.

With `CCOc1ccc(/C=C2\SC(=S)N(CC(=O)NCCCN3CCOCC3)C2=O)cc1` as the compound, how does the Potency read?
Its Potency is inconclusive: 12.6 µM [quencher, side channel, partial curve].

`O=C(NCc1ccccn1)C1CC(c2ccc(Cl)c(Cl)c2)=NO1` (centres undefined) was tested. Which “activity change, negative = inhibition” value did it give?
The value was inactive: 3.08%.

Which Potency does the source give for `Cc1cc(C)nc(Sc2ncnc(N)c2[N+](=O)[O-])n1` here?
The Potency was inconclusive: 12.6 µM [quencher, side channel, partial curve].

For `CN(C)S(=O)(=O)c1ccc(Cl)c(NC(=O)CN2C(=O)NC(C)(C3CC3)C2=O)c1` (centres undefined), which “activity change, negative = inhibition” value is on record?
Its value is inactive: -3.08%.

Which Potency does the source give for `Cc1ccc(C)c2[nH]c(=O)c(CN(Cc3nnnn3C3CCCCC3)CC3CCCO3)cc12` (centres undefined) here?
Its Potency is inconclusive: 7.08 µM [quencher, side channel, partial curve].

Which Potency does the source give for `O=C(c1ccccc1)N1CCN(C(=O)c2nn3c(C(F)(F)F)cc(-c4ccco4)nc3c2Br)CC1` here?
Its Potency is inconclusive: 11.2 µM [quencher, side channel, partial curve].

`O=c1c2ccccc2ncn1CCCSc1ccccc1` was tested. Which “activity change, negative = inhibition” value did it give?
Its value is inactive: 10.2%.

Which Potency does the source give for `O=C(OC[C@@H]1CCCN2CCCC[C@H]12)c1cc2ccccc2oc1=O` here?
Its Potency is inconclusive: 12.6 µM [quencher, side channel, partial curve].

How did the Potency turn out when `O=C(N/N=C/c1ccco1)c1cc2ccccc2o1` was run?
Its Potency is inconclusive: 28.2 µM [quencher, side channel, partial curve].

`CC(C(=O)NN)c1ccc([N+](=O)[O-])cc1` (centres undefined) was tested. Which Potency did it give?
Its Potency is inconclusive: 22.4 µM [quencher, side channel, partial curve].
